# Assay results from publication PMC4336329 (PLoS ONE, 2015).
# About 2,200 (0.71%) of roughly 310,000 compounds showed an effect of 50% or more. The effect is printed as a negative number. The list shows a part of the results. Where a SMILES comes first, the peptide text is derived from it. [ ]: non-standard residue; d: D form. pGlu = O=C1CC[CH](C(=O)O)N1
# Biological target: human ether-à-go-go-related gene (hERG) potassium channel (human, UniProt Q12809)
# Test: primary screen, population patch clamp on CHO cells stably expressing hERG
# Chain of human ether-à-go-go-related gene (hERG) potassium channel (Q12809 whole entry, looked up): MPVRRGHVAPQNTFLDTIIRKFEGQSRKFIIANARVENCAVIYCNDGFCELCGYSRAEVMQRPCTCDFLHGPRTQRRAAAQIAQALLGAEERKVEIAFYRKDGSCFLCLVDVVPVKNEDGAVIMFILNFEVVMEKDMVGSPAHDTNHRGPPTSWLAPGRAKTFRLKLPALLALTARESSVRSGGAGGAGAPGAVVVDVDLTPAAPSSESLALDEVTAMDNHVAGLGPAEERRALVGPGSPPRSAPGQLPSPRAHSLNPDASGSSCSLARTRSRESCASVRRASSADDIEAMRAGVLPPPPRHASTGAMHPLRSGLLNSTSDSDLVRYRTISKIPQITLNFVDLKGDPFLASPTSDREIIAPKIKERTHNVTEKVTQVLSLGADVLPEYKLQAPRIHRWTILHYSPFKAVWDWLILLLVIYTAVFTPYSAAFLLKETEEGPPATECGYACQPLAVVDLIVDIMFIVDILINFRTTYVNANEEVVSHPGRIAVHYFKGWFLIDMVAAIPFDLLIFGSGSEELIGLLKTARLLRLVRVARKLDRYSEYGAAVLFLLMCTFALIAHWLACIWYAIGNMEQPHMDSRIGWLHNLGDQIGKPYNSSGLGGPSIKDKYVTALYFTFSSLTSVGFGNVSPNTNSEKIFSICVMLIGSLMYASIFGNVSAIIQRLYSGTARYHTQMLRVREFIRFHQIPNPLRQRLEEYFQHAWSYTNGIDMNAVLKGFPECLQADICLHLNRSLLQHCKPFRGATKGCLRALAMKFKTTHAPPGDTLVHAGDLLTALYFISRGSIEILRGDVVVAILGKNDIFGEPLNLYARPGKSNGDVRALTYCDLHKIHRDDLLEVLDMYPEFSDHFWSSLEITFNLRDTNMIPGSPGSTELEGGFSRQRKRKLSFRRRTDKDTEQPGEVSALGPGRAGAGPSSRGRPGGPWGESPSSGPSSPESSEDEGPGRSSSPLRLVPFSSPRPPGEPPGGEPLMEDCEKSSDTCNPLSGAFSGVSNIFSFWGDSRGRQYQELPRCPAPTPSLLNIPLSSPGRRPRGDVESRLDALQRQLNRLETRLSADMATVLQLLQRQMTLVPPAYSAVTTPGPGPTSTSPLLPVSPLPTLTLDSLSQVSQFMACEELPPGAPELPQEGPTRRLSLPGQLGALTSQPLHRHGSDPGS
row,SMILES,"hERG current change (%, negative = inhibition) at 1uM [%]"
1,O=C(CCSc1nnc2ccccn12)Nc1ccc(F)cc1,3.91
2,CCCCN(C(=O)c1cc2c(s1)CCCCC2)c1c(N)n(CCC)c(=O)[nH]c1=O,12.7
3,COc1cccc(C(=O)Nc2cccc(S(=O)(=O)NC3=NCCC3)c2)c1,16.7
4,O=C(CS(=O)(=O)c1cn(CC(=O)N2CCOCC2)c2ccccc12)Nc1ccccc1F,12.6
5,O=C(CCCn1c(SCC(=O)c2ccc(F)cc2)nc2ccccc2c1=O)NCc1ccco1,7.55
6,O=C(N/N=C/c1ccccc1)c1cc(-c2ccc3c(c2)OCO3)n[nH]1,6.22
7,COCCCN1C(=O)C(=O)/C(=C(/O)c2ccc3c(c2)OCCO3)C1c1ccc(C(=O)OC)cc1 (centres unmarked),8.36
8,CCOC(=O)c1sc(NC(=O)C2CC(=O)N(c3ccccc3OC)C2)nc1C (centres unmarked),2.1
9,COc1ccc2oc(C(=O)OCC(=O)/C(C#N)=C(\C)N)c(C)c2c1,11.1
10,Cc1nn(C)cc1C(=O)c1ccccc1,14
11,CCOC(=O)c1sc(NC(=O)CSCc2c(C)noc2C)nc1C,3.46
12,Cc1nc(/C(N)=N/OC(=O)c2ccccc2Cl)c(C(F)(F)F)o1,12.5
13,CC(=O)OC(COc1ccccc1)Cn1cnc2cc(C)c(C)cc21.Cl (centres unmarked),11.6
14,CC(C)CC(NC(=O)C(CO)NC(=O)C1CCC(=O)N1)C(N)=O (stereo not drawn) ([pGlu]-Ser-Leu-NH2; configuration not given here),11.9
15,C=CCn1c(SCC(=O)Nc2nc(C)cs2)nnc1C(CO)NC(=O)c1ccccc1 (centres unmarked),5.97
16,Br.CC1CCN(Cc2nnnn2-c2cccc([N+](=O)[O-])c2)CC1,1.18
17,Cc1csc(Nc2ccccc2)n1,14.3
18,COc1ccc(OC)c(S(=O)(=O)n2nc(-c3ccccc3)cc2N)c1,0.508
19,C=CCc1cc(Cl)ccc1OCCCNCCO.O=C(O)C(=O)O,16.1
20,Cc1cccc(CSc2nnc(CCCCCNC(=O)OC(C)(C)C)o2)c1,7.06
21,O=C(OCC(=O)c1ccc[nH]1)c1ccccc1,11.6
22,CCOC(=O)CSc1nc2c(sc(=S)n2-c2ccccc2OC)c(=O)n1-c1ccccc1OC,12.6
23,CCOC(=O)c1ccc(Nc2cc3ccccc3c(=O)[nH]2)cc1,11.3

row,SMILES,"hERG current change (%, negative = inhibition) at 1uM [%]"
1,Cc1cc2c(cc1C)CSC(c1c(O)ccc3ccccc13)SC2,15.9
2,CC(C)N(CCNC(=O)COc1ccc2oc3c(c2c1)CCCC3)C(C)C,-52.7
3,O=C(CSc1ncccn1)c1ccccc1Br,-1.67
4,CCOC(=O)c1ccccc1NC(=O)c1cc(S(=O)(=O)N2CCOCC2)ccc1F,6.31
5,NNc1nc2sc3c(c2c(=O)n1Cc1ccccc1)CCC3,11.1
6,CC(C)C(=O)c1c(C(C)C)nn2ccccc12,12.6
7,Clc1ccc(Cc2ccccc2)nn1,9.13
8,C=CCSc1nc2nc(C)cc(C)n2n1,8.28
9,CCOC(=O)c1cc(NC(=O)CC(C)(C)CC(=O)O)ccc1N1CCCCC1,15.5
10,O=c1cc(-c2ccccc2)[nH]n1-c1ccc([N+](=O)[O-])cc1,9.17
11,CCOC(=O)N1CCN(c2nc(-c3ccccc3)c3ccccc3n2)CC1,5
12,CCOC(=O)c1ccc(NC(=O)CSc2nnc(C)n2-c2ccccc2)cc1,7.95
13,O=C(N1CCCC1)C12CC3CC(CC(C3)C1)C2,11.5
14,O=C(/C=C/c1ccco1)Nc1ccccc1N1CCOCC1,7.96
15,CC(=O)Nc1ccc(C(=O)CSc2nnc(Cc3ccccc3)o2)cc1,-2.88
16,CCC/C=N/Nc1nnc(Cc2ccc(OC)c(OC)c2)c(=O)[nH]1,25.4
17,COc1ccc(CNC(=O)CN(C(=O)c2csnn2)c2ccccc2F)cc1,16.2
18,C/C(N)=C(/C#N)C(=O)COC(=O)c1cc2c(s1)CCCC2,-18.2
19,Cc1ccc(C)c(NC(=O)CC2Oc3ccccc3NC2=O)c1 (centres unmarked),5.54
20,Cc1ccc(-c2csc(Cc3nc(-c4ccc5c(c4)CCC(=O)N5)cs3)n2)cc1,-1.13
21,CCn1cc(C(=O)N[C@H](C(=O)NCCN2CCOCC2)C(C)C)c(=O)c2cc3c(cc21)OCO3,23.4
22,COc1ccc(CCC(=O)NCCS(=O)(=O)N2CCN(c3ccccc3OC)CC2)cc1,6.96
23,COc1cc2c(=O)n(-c3ccc(C)cc3)c(=O)n(CC(=O)c3ccc4c(c3)OCO4)c2cc1OC,12

row,SMILES,"hERG current change (%, negative = inhibition) at 1uM [%]"
1,O=C(N/N=C\C=C\c1ccc2c(c1)OCO2)C1COc2cc3ccccc3cc2O1 (centres unmarked),9.47
2,CCOC(=O)CN1C(=O)N[C@@H](CCc2ccccc2)[C@H](C(=O)OC)[C@H]1C,16.7
3,CCOc1nc(CC(C)C)c2c(c1C#N)CC(C)(C)OC2,7.65
4,CN1C[C@H](CO)C=C2c3cccc4[nH]cc(c34)C[C@H]21,9.33
5,COc1ccc(N2CCN(C(=O)C3CCCN(S(=O)(=O)c4ccc5c(c4)oc(=O)n5C)C3)CC2)cc1 (centres unmarked),10.3
6,CCOC(=O)c1ccccc1NC(=O)CN(c1ccccc1OC)S(C)(=O)=O,-1.2
7,COc1ccc(OC)c(C2C(C(=O)c3cccs3)=C(O)C(=O)N2CCN(C)C)c1 (centres unmarked),9.34
8,Cc1ccc(OCC(=O)Nc2ccc(Cl)cc2)c([N+](=O)[O-])n1,8.73
9,CN1CCN(S(=O)(=O)CC2(C)C3CCC2(C)C(=O)C3Br)CC1 (centres unmarked),12.8
10,Cn1c(=O)oc2cc(S(=O)(=O)N3CCN(c4ccc(F)cc4)CC3)ccc21,-1.74
11,CCN1CCN(c2nc3ccccc3nc2C(C#N)S(=O)(=O)c2ccc(C)cc2)CC1 (centres unmarked),-0.395
12,O=C(Nc1ccccc1)C1CC(=O)N(Cc2ccccc2)C1 (centres unmarked),2.48
13,COc1cccc(N2C(=O)C3CCCN3C2c2ccc(Cl)cc2)c1 (centres unmarked),7.82
14,O=C(CCl)NCCCN(C(=O)C(Cl)Cl)c1ccc([N+](=O)[O-])cc1,6.22
15,Cc1cccc(OCC(=O)NCCNC(=O)c2cnccn2)c1,14
16,CC1=CC(C)(C)Nc2ccccc21.Cl,10.3
17,CN(Cc1nc(-c2ccccn2)no1)S(=O)(=O)c1ccccc1,10.5
18,COc1ccc(-n2nnnc2SCC(=O)Nc2cc(OC)c([N+](=O)[O-])cc2C)cc1,23.2
19,Cc1cccc(NC(=O)c2ccc(S(=O)(=O)N3CCCCC3)cc2)n1,10.9
20,Cc1ccc(N=C(N(C)C)P(=O)(N(C)C)N(C)C)cc1,13.6
21,CC(=O)Nc1nnc(SCC(=O)NCCOc2ccccc2)s1,3.75
22,COc1ccc(-c2n[nH]c3c2CN(C(=O)c2ccc(F)cc2)CC3)cc1,-7.22
23,O=C(O)CN1C(=O)NC2(CCc3ccccc32)C1=O (centres unmarked),14.3

row,SMILES,"hERG current change (%, negative = inhibition) at 1uM [%]"
1,O=C(COc1ccc2c(-c3ccccc3)cc(=O)oc2c1)NCc1cccs1,18.3
2,Cc1ccccc1SCC(=O)OCC(=O)NCCNC(=O)COC(=O)CSc1ccccc1C,-3.06
3,O=S(=O)(NCc1ccc2c(c1)OCO2)c1ccccc1F,13.5
4,O=C(C1CCCCC1)N1CCN(c2ccnc3cc(Cl)ccc23)CC1,-27.1
5,Cc1c(NC(=O)CSc2nc3c(cnn3-c3ccccc3)c(=O)[nH]2)c(=O)n(-c2ccccc2)n1C,15.6
6,Cc1cc(=O)oc2c(C(=O)/C=C\c3cccs3)c(O)ccc12,9.2
7,COc1ccccc1OCC(=O)Sc1ccc(C)cc1,37.1
8,CCOc1ccc(OCCSc2nc(C)cc(=O)[nH]2)cc1,3.33
9,Cc1nc2c(C#N)cnn2c2c1CCN2CC1CCCO1 (centres unmarked),0.18
10,Cc1onc(-c2ccccc2Cl)c1C(=O)N1CCN(C(=O)c2ccco2)CC1,3.6
11,Cc1ccc(-n2nnnc2SC(C)C(=O)Nc2ccccc2-c2ccccc2)cc1 (centres unmarked),3.07
12,COc1ccc(CCNc2oc(Cc3cccc4ccccc34)nc2C#N)cc1OC,3.56
13,COC(=O)CC(NC(=S)N1CC2C[C@@H](C1)Cn1c2cccc1=O)C(=O)OC (some centres unmarked),11
14,CC(C)C(NC(=O)c1ccc(F)cc1)C(=O)NC1(C)CCS(=O)(=O)C1 (centres unmarked),8.95
15,CNC(=S)N/N=C/c1ccc(N2CCOCC2)s1,22.3
16,CC(OC(=O)c1cccc(S(=O)(=O)N2CCCCCC2)c1)C(=O)Nc1ccc(S(N)(=O)=O)cc1 (centres unmarked),14.8
17,COc1ccc(-c2nc(N)ncc2-c2ccccc2OC)c(O)c1,11.6
18,Brc1ccc(CSc2ccc3nnc(-c4ccccn4)n3n2)cc1,-12.7
19,N#Cc1c(/N=C/N2CCOCC2)sc2c1CCCCC2,3.12
20,S=C(Nc1ccccc1)N1CCc2ccccc21,7.86
